According to the supplement of paper PMC8728848:
The list shows a part of the results.

Legend:
Experiment in all cases: glycan array binding signal (z-score within array); higher = stronger binding
Settings in all cases: glycan notation: IUPAC condensed, linker removed
[1] = target: Gal(b1-4)GlcNAc(b1-2)[Gal(b1-4)GlcNAc(b1-6)]Man(a1-6)[Gal(b1-4)GlcNAc(b1-2)Man(a1-3)]Man(b1-4)GlcNAc(b1-4)[Fuc(a1-6)]GlcNAc
Procedure, shortened: (§1)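 Columns mapping to the same glycan were averaged after glycan names were converted to IUPAC-condensed notation. The data come from 3228 arrays in the Consortium for Functional Glycomics database, limited to those with an available protein sequence. Binding is reported as a within-array Z-score averaged across arrays of one protein sequence and across linkers.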

[2] = target: Gal(b1-4)GlcNAc(b1-2)[Gal(b1-4)GlcNAc(b1-6)]Man(a1-6)[GlcNAc(b1-4)][Gal(b1-4)GlcNAc(b1-2)Man(a1-3)]Man(b1-4)GlcNAc(b1-4)GlcNAc
Procedure, shortened: as §1

[3] = target: Gal(b1-4)GlcNAc(b1-2)[Gal(b1-4)GlcNAc(b1-6)]Man(a1-6)[GlcNAc(b1-4)][Gal(b1-4)GlcNAc(b1-2)[Gal(b1-4)GlcNAc(b1-4)]Man(a1-3)]Man(b1-4)GlcNAc(b1-4)[Fuc(a1-6)]GlcNAc
Procedure, shortened: as §1

[4] = target: Gal(b1-4)GlcNAc(b1-3)Gal(b1-3)GalNAc
Procedure, shortened: as §1

[5] = target: Gal(b1-4)GlcNAc(b1-3)Gal(b1-3)GlcNAc
Procedure, shortened: as §1

[6] = target: Gal(b1-4)GlcNAc(b1-3)Gal(b1-4)Glc
Procedure, shortened: as §1

[7] = target: Gal(b1-4)GlcNAc(b1-3)Gal(b1-4)GlcNAc
Procedure, shortened: as §1

[8] = target: Gal(b1-4)GlcNAc(b1-3)Gal(b1-4)GlcNAc(b1-2)Man(a1-3)[Gal(b1-4)GlcNAc(b1-3)Gal(b1-4)GlcNAc(b1-2)Man(a1-6)]Man(b1-4)GlcNAc(b1-4)GlcNAc
Procedure, shortened: as §1

[9] = target: Gal(b1-4)GlcNAc(b1-3)Gal(b1-4)GlcNAc(b1-2)Man(a1-3)[Gal(b1-4)GlcNAc(b1-3)Gal(b1-4)GlcNAc(b1-2)Man(a1-6)]Man(b1-4)GlcNAc(b1-4)[Fuc(a1-6)]GlcNAc
Procedure, shortened: as §1

[10] = target: Gal(b1-4)GlcNAc(b1-3)Gal(b1-4)GlcNAc(b1-2)[Gal(b1-4)GlcNAc(b1-3)Gal(b1-4)GlcNAc(b1-6)]Man(a1-6)[Gal(b1-4)GlcNAc(b1-3)Gal(b1-4)GlcNAc(b1-2)Man(a1-3)]Man(b1-4)GlcNAc(b1-4)GlcNAc
Procedure, shortened: as §1

[11] = target: Gal(b1-4)GlcNAc(b1-3)Gal(b1-4)GlcNAc(b1-2)[Gal(b1-4)GlcNAc(b1-3)Gal(b1-4)GlcNAc(b1-6)]Man(a1-6)[Gal(b1-4)GlcNAc(b1-3)Gal(b1-4)GlcNAc(b1-2)Man(a1-3)]Man(b1-4)GlcNAc(b1-4)[Fuc(a1-6)]GlcNAc
Procedure, shortened: as §1

[12] = target: Gal(b1-4)GlcNAc(b1-3)Gal(b1-4)GlcNAc(b1-3)Gal(b1-4)GlcNAc
Procedure, shortened: as §1

[13] = target: Gal(b1-4)GlcNAc(b1-3)Gal(b1-4)GlcNAc(b1-3)Gal(b1-4)GlcNAc(b1-2)Man(a1-3)[Gal(b1-4)GlcNAc(b1-3)Gal(b1-4)GlcNAc(b1-3)Gal(b1-4)GlcNAc(b1-2)Man(a1-6)]Man(b1-4)GlcNAc(b1-4)GlcNAc
Procedure, shortened: as §1

[14] = target: Gal(b1-4)GlcNAc(b1-3)Gal(b1-4)GlcNAc(b1-3)Gal(b1-4)GlcNAc(b1-2)Man(a1-3)[Gal(b1-4)GlcNAc(b1-3)Gal(b1-4)GlcNAc(b1-3)Gal(b1-4)GlcNAc(b1-2)Man(a1-6)]Man(b1-4)GlcNAc(b1-4)[Fuc(a1-6)]GlcNAc
Procedure, shortened: as §1

[15] = target: Gal(b1-4)GlcNAc(b1-3)Gal(b1-4)GlcNAc(b1-3)Gal(b1-4)GlcNAc(b1-2)[Gal(b1-4)GlcNAc(b1-3)Gal(b1-4)GlcNAc(b1-3)Gal(b1-4)GlcNAc(b1-6)]Man(a1-6)[Gal(b1-4)GlcNAc(b1-3)Gal(b1-4)GlcNAc(b1-3)Gal(b1-4)GlcNAc(b1-2)Man(a1-3)]Man(b1-4)GlcNAc(b1-4)[Fuc(a1-6)]GlcNAc
Procedure, shortened: as §1

[16] = target: Gal(b1-4)GlcNAc(b1-3)Gal(b1-4)GlcNAc(b1-3)Gal(b1-4)GlcNAc(b1-3)Gal(b1-4)GlcNAc(b1-2)Man(a1-3)[Gal(b1-4)GlcNAc(b1-3)Gal(b1-4)GlcNAc(b1-3)Gal(b1-4)GlcNAc(b1-3)Gal(b1-4)GlcNAc(b1-2)Man(a1-6)]Man(b1-4)GlcNAc(b1-4)GlcNAc
Procedure, shortened: as §1

[17] = target: Gal(b1-4)GlcNAc(b1-3)Gal(b1-4)GlcNAc(b1-3)Gal(b1-4)GlcNAc(b1-3)Gal(b1-4)GlcNAc(b1-2)Man(a1-3)[Gal(b1-4)GlcNAc(b1-3)Gal(b1-4)GlcNAc(b1-3)Gal(b1-4)GlcNAc(b1-3)Gal(b1-4)GlcNAc(b1-2)Man(a1-6)]Man(b1-4)GlcNAc(b1-4)[Fuc(a1-6)]GlcNAc
Procedure, shortened: as §1

[18] = target: Gal(b1-4)GlcNAc(b1-3)Gal(b1-4)GlcNAc(b1-3)Gal(b1-4)GlcNAc(b1-3)Gal(b1-4)GlcNAc(b1-2)[Gal(b1-4)GlcNAc(b1-3)Gal(b1-4)GlcNAc(b1-3)Gal(b1-4)GlcNAc(b1-3)Gal(b1-4)GlcNAc(b1-6)]Man(a1-6)[Gal(b1-4)GlcNAc(b1-3)Gal(b1-4)GlcNAc(b1-3)Gal(b1-4)GlcNAc(b1-3)Gal(b1-4)GlcNAc(b1-2)Man(a1-3)]Man(b1-4)GlcNAc(b1-4)[Fuc(a1-6)]GlcNAc
Procedure, shortened: as §1

[19] = target: Gal(b1-4)GlcNAc(b1-3)Gal(b1-4)GlcNAc(b1-3)Gal(b1-4)GlcNAc(b1-3)Gal(b1-4)GlcNAc(b1-3)Gal(b1-4)GlcNAc(b1-2)Man(a1-3)[Gal(b1-4)GlcNAc(b1-3)Gal(b1-4)GlcNAc(b1-3)Gal(b1-4)GlcNAc(b1-3)Gal(b1-4)GlcNAc(b1-3)Gal(b1-4)GlcNAc(b1-2)Man(a1-6)]Man(b1-4)GlcNAc(b1-4)GlcNAc
Procedure, shortened: as §1

[20] = target: Gal(b1-4)GlcNAc(b1-3)Gal(b1-4)GlcNAc(b1-3)Gal(b1-4)GlcNAc(b1-3)Gal(b1-4)GlcNAc(b1-3)Gal(b1-4)GlcNAc(b1-2)Man(a1-3)[Gal(b1-4)GlcNAc(b1-3)Gal(b1-4)GlcNAc(b1-3)Gal(b1-4)GlcNAc(b1-3)Gal(b1-4)GlcNAc(b1-3)Gal(b1-4)GlcNAc(b1-2)Man(a1-6)]Man(b1-4)GlcNAc(b1-4)[Fuc(a1-6)]GlcNAc
Procedure, shortened: as §1

[21] = target: Gal(b1-4)GlcNAc(b1-3)Gal(b1-4)GlcNAc(b1-3)Gal(b1-4)GlcNAc(b1-3)Gal(b1-4)GlcNAc(b1-3)Gal(b1-4)GlcNAc(b1-2)[Gal(b1-4)GlcNAc(b1-3)Gal(b1-4)GlcNAc(b1-3)Gal(b1-4)GlcNAc(b1-3)Gal(b1-4)GlcNAc(b1-3)Gal(b1-4)GlcNAc(b1-6)]Man(a1-6)[Gal(b1-4)GlcNAc(b1-3)Gal(b1-4)GlcNAc(b1-3)Gal(b1-4)GlcNAc(b1-3)Gal(b1-4)GlcNAc(b1-3)Gal(b1-4)GlcNAc(b1-2)Man(a1-3)]Man(b1-4)GlcNAc(b1-4)[Fuc(a1-6)]GlcNAc
Procedure, shortened: as §1

[22] = target: Gal(b1-4)GlcNAc(b1-3)Gal(b1-4)GlcNAc(b1-3)Gal(b1-4)GlcNAc(b1-3)Gal(b1-4)GlcNAc(b1-3)Gal(b1-4)GlcNAc(b1-3)Gal(b1-4)GlcNAc(b1-2)Man(a1-3)[Gal(b1-4)GlcNAc(b1-3)Gal(b1-4)GlcNAc(b1-3)Gal(b1-4)GlcNAc(b1-3)Gal(b1-4)GlcNAc(b1-3)Gal(b1-4)GlcNAc(b1-3)Gal(b1-4)GlcNAc(b1-2)Man(a1-6)]Man(b1-4)GlcNAc(b1-4)GlcNAc
Procedure, shortened: as §1

[23] = target: Gal(b1-4)GlcNAc(b1-3)Gal(b1-4)GlcNAc(b1-3)GalNAc
Procedure, shortened: as §1

B1: EPL1 (Trichoderma atroviride), A0PCX2 (protein)
chain: MQLSNLFKLALFTAAVSADTVSYDTGYDDASRSLTVVSCSDGTNGLITRYHWQTQGQIPRFPYIGGAQAVAGWNSPNCGTCWKLTYSGKTIYVLAIDHTAAGFNIGLDAMNALTNGNAVALGRVSATASQVAVSNCGL
[1]
  glycan array binding signal (z-score): 0.663
[2]
  glycan array binding signal (z-score): -0.501
[3]
  glycan array binding signal (z-score): 0.025
[4]
  glycan array binding signal (z-score): -0.243
[5]
  glycan array binding signal (z-score): -0.08
[6]
  glycan array binding signal (z-score): -0.362
[7]
  glycan array binding signal (z-score): -0.261
[8]
  glycan array binding signal (z-score): 0.321
[9]
  glycan array binding signal (z-score): 0.138
[10]
  glycan array binding signal (z-score): -0.13
[11]
  glycan array binding signal (z-score): 0.124
[12]
  glycan array binding signal (z-score): 0.071
[13]
  glycan array binding signal (z-score): 0.34
[14]
  glycan array binding signal (z-score): -0.02
[15]
  glycan array binding signal (z-score): 0.431
[16]
  glycan array binding signal (z-score): -0.381
[17]
  glycan array binding signal (z-score): 0.094
[18]
  glycan array binding signal (z-score): 0.694
[19]
  glycan array binding signal (z-score): 0.259
[20]
  glycan array binding signal (z-score): -0.017
[21]
  glycan array binding signal (z-score): 0.457
[22]
  glycan array binding signal (z-score): 0.216
[23]
  glycan array binding signal (z-score): 0.049
